The values that follow come from paper PMC4336329 (PLoS ONE, 2015).

Molecules are shown by their SMILES. Out of some 310,000 compounds screened, about 2,200 (0.71%) showed an effect of 50% or more. Effects have a minus sign here. Some of the results follow.

In this assay the target is human ether-à-go-go-related gene (hERG) potassium channel (human, UniProt Q12809). Briefly: primary screen, population patch clamp on CHO cells stably expressing hERG.
human ether-à-go-go-related gene (hERG) potassium channel, sequence (Q12809 whole entry, looked up): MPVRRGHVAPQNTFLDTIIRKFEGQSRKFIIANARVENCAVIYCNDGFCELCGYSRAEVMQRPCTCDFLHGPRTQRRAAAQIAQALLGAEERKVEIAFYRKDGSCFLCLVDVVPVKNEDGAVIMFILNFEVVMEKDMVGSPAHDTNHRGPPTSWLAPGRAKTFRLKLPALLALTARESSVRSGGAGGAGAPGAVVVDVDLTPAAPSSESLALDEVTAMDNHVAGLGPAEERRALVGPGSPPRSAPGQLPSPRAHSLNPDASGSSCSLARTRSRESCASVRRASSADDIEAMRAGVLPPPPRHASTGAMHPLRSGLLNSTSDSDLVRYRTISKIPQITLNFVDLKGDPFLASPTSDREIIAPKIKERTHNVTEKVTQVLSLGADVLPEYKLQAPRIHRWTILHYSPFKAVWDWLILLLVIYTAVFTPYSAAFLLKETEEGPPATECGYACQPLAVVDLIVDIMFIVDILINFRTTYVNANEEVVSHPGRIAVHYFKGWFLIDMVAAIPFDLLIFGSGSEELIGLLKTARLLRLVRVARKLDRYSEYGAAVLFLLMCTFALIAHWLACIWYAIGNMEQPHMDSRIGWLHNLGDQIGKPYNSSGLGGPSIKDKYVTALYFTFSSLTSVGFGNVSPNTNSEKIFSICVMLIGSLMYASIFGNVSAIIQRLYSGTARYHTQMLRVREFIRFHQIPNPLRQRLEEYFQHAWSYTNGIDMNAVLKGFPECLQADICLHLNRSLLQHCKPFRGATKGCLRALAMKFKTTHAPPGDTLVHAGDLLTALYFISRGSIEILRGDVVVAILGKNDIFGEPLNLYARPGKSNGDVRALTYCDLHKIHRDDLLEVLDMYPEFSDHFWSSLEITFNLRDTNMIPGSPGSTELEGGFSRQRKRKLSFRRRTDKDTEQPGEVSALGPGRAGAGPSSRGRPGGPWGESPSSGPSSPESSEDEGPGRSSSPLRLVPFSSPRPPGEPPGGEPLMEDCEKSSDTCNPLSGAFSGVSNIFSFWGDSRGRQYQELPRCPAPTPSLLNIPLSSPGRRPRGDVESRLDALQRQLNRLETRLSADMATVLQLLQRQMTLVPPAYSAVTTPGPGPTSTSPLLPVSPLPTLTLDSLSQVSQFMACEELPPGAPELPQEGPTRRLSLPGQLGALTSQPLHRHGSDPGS
For `O=C1/C(=C/c2ccncc2)SC(=S)N1Nc1ccccc1`, the “hERG current change (%, negative = inhibition) at 1uM” value was found to be 14.8%.

`C=CCN1C(=O)/C(=C\c2ccc(Cl)cc2)N=C1SCC(=O)NC1CCCCC1`: the “hERG current change (%, negative = inhibition) at 1uM” value came to 6.35%.

As to `CCN1CCN(C(=S)Nc2sc(C)c(-c3ccccc3)c2C(=O)OC)CC1`, the “hERG current change (%, negative = inhibition) at 1uM” value worked out at 8.08%.

`Cc1nc(SCC(=O)N(C)C2CCCCC2)[nH]c(=O)c1Cc1ccccc1`: the “hERG current change (%, negative = inhibition) at 1uM” value was determined as 0.827%.

For `Cc1cccc(CSc2ccc3nnc(-c4cccnc4)n3n2)c1`, the “hERG current change (%, negative = inhibition) at 1uM” value is given as -16%.

For the compound `CN(C)CCCN(Cc1ccccc1)C(=S)Nc1ccc(F)c(Cl)c1`, the “hERG current change (%, negative = inhibition) at 1uM” value was determined as 14.1%.

In the case of `COc1ccccc1C(=O)Oc1ccc2c(c1)O/C(=C\c1ccncc1)C2=O`, the “hERG current change (%, negative = inhibition) at 1uM” value was found to be 18%.

Consider `O=C(NC(=S)Nc1ccccc1N1CCCCC1)c1ccc(-c2cccc([N+](=O)[O-])c2)o1`, for which the “hERG current change (%, negative = inhibition) at 1uM” value is 15.6%.

In the case of `O=C(Nc1ccc(C(=O)N2CCOCC2)cc1)c1cccc([N+](=O)[O-])c1`, the “hERG current change (%, negative = inhibition) at 1uM” value is recorded as 17.5%.

With `CCN1CCN(C(=O)/C=C/c2ccc(F)cc2)CC1`, the “hERG current change (%, negative = inhibition) at 1uM” value is -13.1%.

On to `O=C(CS(=O)(=O)c1cccc(C(F)(F)F)c1)Nc1ccccc1Cl`, for which the “hERG current change (%, negative = inhibition) at 1uM” value amounted to 10.3%.

For the compound `COc1ccc(CN2C(=S)NC(C)(C)CC2(C)O)cc1` (stereo not drawn), the “hERG current change (%, negative = inhibition) at 1uM” value worked out at 4.01%.

For `CSc1nc(C)c(C(=O)C[n+]2ccccc2)cc1C#N.[Br-]`, the “hERG current change (%, negative = inhibition) at 1uM” value was found to be 8.95%.

For the compound `Cc1ccccc1Oc1ccc(-c2nc(N)nc(N)n2)cc1`, the “hERG current change (%, negative = inhibition) at 1uM” value was found to be 8.6%.

In the case of `COCCn1c(N2CCCC2)nc2c1c(=O)[nH]c(=O)n2C`, the “hERG current change (%, negative = inhibition) at 1uM” value turned out to be 12.8%.

Turning to `Cc1cc(=O)n2nc(N3CCCC(C(=O)NCCCN4CC(C)CC(C)C4)C3)sc2n1` (stereo not drawn), the “hERG current change (%, negative = inhibition) at 1uM” value worked out at 17.6%.

With `O=C(CCCn1c(=O)[nH]c2cc(Cl)ccc2c1=O)NCCCN1CCCC1`, the “hERG current change (%, negative = inhibition) at 1uM” value is given as 18.3%.

On to `O=C(COC(=O)c1ccc(Cl)cc1O)NCCN1C(=O)CSC1=O`, for which the “hERG current change (%, negative = inhibition) at 1uM” value came out at 8.58%.

With `CN(CC(=O)Nc1ccc(Cl)c(C(F)(F)F)c1)C(=O)c1ccc2c(c1)OCCO2`, the “hERG current change (%, negative = inhibition) at 1uM” value amounted to 9.24%.

`Cc1cc([N+](=O)[O-])nn1CC(=O)Nc1nccs1`: the “hERG current change (%, negative = inhibition) at 1uM” value was 12.7%.

For `Cc1ccc(N(CC2CO2)S(=O)(=O)c2ccc(C)cc2)cc1` (stereo not drawn), the “hERG current change (%, negative = inhibition) at 1uM” value came out at 15.3%.

`O=C(Nc1ccnn1C1CCN(Cc2ccccc2OCCO)CC1)c1cccc(F)c1`: the “hERG current change (%, negative = inhibition) at 1uM” value is listed as -6.97%.

Turning to `Cc1nn(-c2ccccc2)c(-c2ccccc2[N+](=O)[O-])c1C(=O)O`, the “hERG current change (%, negative = inhibition) at 1uM” value is recorded as 15.2%.

With `CCC(C)(C)c1nnc(NC(=O)c2ccc([N+](=O)[O-])cc2)s1`, the “hERG current change (%, negative = inhibition) at 1uM” value is 9.08%.

Take `CN(C)c1nc(-c2cn(CCC#N)c3ccccc23)cs1`: the “hERG current change (%, negative = inhibition) at 1uM” value is recorded as 14.4%.

For the compound `CN(CCc1ccccn1)C(=O)CCC1CCCN(C(=O)c2n[nH]c3c2CCCC3)C1` (stereo not drawn), the “hERG current change (%, negative = inhibition) at 1uM” value is 9.5%.

Take `O=C(NC(=S)Nc1ccc(CN2CCOCC2)cc1)c1ccc(-c2ccc(Cl)cc2)o1`: the “hERG current change (%, negative = inhibition) at 1uM” value worked out at 8.7%.

Take `CCNC(=O)N1CCN(S(=O)(=O)c2ccc3c(c2)OCCCO3)CC1`: the “hERG current change (%, negative = inhibition) at 1uM” value amounted to 6.9%.

Regarding `Cc1cc(C)c2nc(Cl)c(Cl)nc2c1`, the “hERG current change (%, negative = inhibition) at 1uM” value came out at 11.7%.

`CC(=O)c1cccc(N=C2C(=O)Nc3ccccc32)c1`: the “hERG current change (%, negative = inhibition) at 1uM” value was 0.588%.

As to `COc1ccc([N+](=O)[O-])c(OC)c1C(=O)NC(=O)Nc1c(F)cc(F)cc1F`, the “hERG current change (%, negative = inhibition) at 1uM” value was found to be 14.4%.

Regarding `c1cncc(CNC2=NCCC2)c1`, the “hERG current change (%, negative = inhibition) at 1uM” value is given as 13.8%.

With `NS(=O)(=O)c1ccc(CCNC(=O)COC(=O)C2CCCN2C(=O)c2cccs2)cc1` (stereo not drawn), the “hERG current change (%, negative = inhibition) at 1uM” value is recorded as 12.5%.

`CCCN1CCc2c(sc(NC(=O)Cc3ccc(F)cc3)c2C(N)=O)C1.Cl`: the “hERG current change (%, negative = inhibition) at 1uM” value is recorded as -7.81%.

For the compound `Cc1ccc(NC(=S)Nc2ccc(S(=O)(=O)Nc3ncccn3)cc2)c(C)c1`, the “hERG current change (%, negative = inhibition) at 1uM” value came out at 8.54%.

Turning to `O=C(CCS(=O)(=O)c1cccc2nonc12)NCCc1ccccc1`, the “hERG current change (%, negative = inhibition) at 1uM” value was 7.02%.

`Cc1c(C=Nc2ccc(S(=O)(=O)CCO)cc2)c(O)[nH]c(=O)c1C#N`: the “hERG current change (%, negative = inhibition) at 1uM” value came out at 17%.

Consider `Cc1ccc(-n2nc3c(=O)n(CCCC(=O)N4CCCCC4)nc(C)c3c2C)cc1`, for which the “hERG current change (%, negative = inhibition) at 1uM” value is given as -9.99%.

On to `CC(=O)c1c(C)c2c(n1CCN(C)C)CCCC2.Cl`, for which the “hERG current change (%, negative = inhibition) at 1uM” value was 6.44%.

On to `Cc1ccc(C(=O)Nc2cc(-c3ccn[nH]3)c(C)n(N)c2=O)cc1`, for which the “hERG current change (%, negative = inhibition) at 1uM” value is given as 20.1%.

Turning to `C/C(CC(=O)Nc1ccc(Cl)c(C(F)(F)F)c1)=N\NC(=O)c1ccccc1O`, the “hERG current change (%, negative = inhibition) at 1uM” value came out at 1.48%.

In the case of `Cc1cc(C)n(S(=O)(=O)c2ccc3ccccc3c2)n1`, the “hERG current change (%, negative = inhibition) at 1uM” value is given as 0.267%.

For the compound `Cc1ccc(NC(=O)CSc2nncn2N)cc1C`, the “hERG current change (%, negative = inhibition) at 1uM” value is 9.38%.

Consider `COC(=O)Cn1c(=O)cnc2ccccc21`, for which the “hERG current change (%, negative = inhibition) at 1uM” value is reported as 9.02%.

Turning to `Cc1ccc(CCNC(=O)C23CN(Cc4ccccc4)CC2C(c2cccc([N+](=O)[O-])c2)=NO3)cc1` (stereo not drawn), the “hERG current change (%, negative = inhibition) at 1uM” value is on record as 17.7%.

As to `CCC(c1nnnn1C(C)(C)C)N1CCN(C(=O)c2ccco2)CC1` (stereo not drawn), the “hERG current change (%, negative = inhibition) at 1uM” value stood at 11.3%.

`CCOc1ccc(CNC(=O)CCCC(=O)n2ncc3cc(C)ccc32)cc1`: the “hERG current change (%, negative = inhibition) at 1uM” value is 19%.

`CC(=O)c1cc2c(cc1NC(=O)c1cnc(C)cn1)OCO2`: the “hERG current change (%, negative = inhibition) at 1uM” value is recorded as 5.03%.

With `CC(Sc1nnc(-c2ccco2)n1C)C(=O)Nc1nccs1` (stereo not drawn), the “hERG current change (%, negative = inhibition) at 1uM” value is -8.78%.

As for `COc1ccc(-c2nc(SCc3ccccc3)n(C(=O)c3ccco3)n2)cc1`, the “hERG current change (%, negative = inhibition) at 1uM” value was determined as 15.4%.

For `O=C1Nc2ccccc2C1(c1ccccc1)c1ccccc1`, the “hERG current change (%, negative = inhibition) at 1uM” value is on record as 2.73%.

Take `O=c1ccc2ccc(O[C@@H]3O[C@H](CO)[C@@H](O)[C@H](O)[C@H]3O)c(O)c2o1`: the “hERG current change (%, negative = inhibition) at 1uM” value stood at 14.6%.

For `C=CCCC(=O)N(C)CCO`, the “hERG current change (%, negative = inhibition) at 1uM” value amounted to 15.1%.

As for `Cc1coc2c(C)c3oc(=O)c(CCC(=O)NCCCN4CCCC4=O)c(C)c3cc12`, the “hERG current change (%, negative = inhibition) at 1uM” value is listed as -1.75%.

Consider `Cc1cc(C(=O)Nc2nc(-c3ccccn3)cs2)ccc1[N+](=O)[O-]`, for which the “hERG current change (%, negative = inhibition) at 1uM” value is recorded as 12.8%.

Turning to `OCC[C@H]1C[C@@H](O)[C@H](O)[C@@]2(Cc3ccccc3O2)O1`, the “hERG current change (%, negative = inhibition) at 1uM” value came out at 17.3%.

For `N=C1C(c2nc3ccccc3s2)=C(O)CN1NC(=O)c1c[nH]c2ccccc12`, the “hERG current change (%, negative = inhibition) at 1uM” value is on record as 10.2%.
